Measurements from PubChem BioAssay AID488810 (Sanford-Burnham Center for Chemical Genomics, 2010).
Not every entry of the source has a single result; some have several. This list holds those alone.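 How the source made its calls: active means compounds with IC50 below 20 µM; inactive means the rest.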 There may be further records. Values that stand side by side are repeated measurements in other runs, samples, wells, individuals or studies. What stands in brackets tells the records apart. The letters are not those of the source and start again with each entry.

Biological target: Type-1 angiotensin II receptor (Homo sapiens) (UniProt P30556)
Test: AGTR1 antagonism selectivity check – cell-based, CHO-K1 PathHunter, luminescence, selectivity assay for APJ antagonist project, SAR follow-up (AID 488810);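 further: agonist challenge with angiotensin II at 50 nM final near its EC80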
Conditions: CHO-K1 AGTR1 PathHunter beta-arrestin, antagonist mode

In the case of Cc1ccc(N=C2C(=O)Nc3ccccc32)cc1, the IC50 was 17.5 µM [sample A] and inactive [sample B].
